Experimental data from the supplement of paper PMC7726561.
Over roughly 1,100 sequences, “thermal melting temperature (Tm) of peptide-HLA complex” has its median near 58; the lowest 2% begin near 42. The list shows a part of the results.

target: HLA-A*02:01; assay: thermal melting temperature (Tm) of peptide-HLA complex; higher = more thermostable pHLA complex; details: C1R-A*02:01
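Further: cell lysates heated 10 min at 37–73 °C, remaining pHLA pulled down with pan-class I antibody, peptides quantified by DIA-MS versus 37 °C, Tm where half the complex is lost.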

Sequence	thermal melting temperature [°C]
NLAENISRV	59.1
RLNEAAVTV	58
ILLPEPSIRSV	60.3
VLQYVVPEV	59.7
RLWGEPVNL	63.2
SLDPHAQVAV	48.9
VIIPKNWSL	54.7
KLADFGLARL	58.3
VLFGREVSPA	54
TLTSNIPEI	57.4
TLTEEGVIKV	57.2
ALLGKIEKV	58.1
FGPPIPKGV	54.1
KLGEIVTTI	57.2
SLGKVFGV	62.9
FILPKEIAV	58.7
FVNEIISRI	59.8
QQIGKVVQV	53.4

Sequence	thermal melting temperature [°C]
FVIRNIVEA	52.1
YLYESGETEKL	52.6
SIYPLHDVFV	49.5
FLLGHEIAHA	44.6
IVLPAGALHQV	61.9
SLQDEIQRV	60.9
TTLEQPPSV	50.3
HLDEAIHVL	51.9
SLLRVGWSV	59.6
FLLPKVQSIQL	61.5
ALSGLAVRL	57
RLSDQVLFV	62.4
ILDEHVQRV	55.3
NLLEIAPHL	52.1
ILLDDQFQPKL	59.1
FISEIIHQL	58.2
SLYHIYVAL	55.7
FMQHDVQEL	41.6
